Assay results: paper PMC8807876
No constants are given. Whether binding was seen depends on the method and setting. In cells and extracts the contact can be indirect. Some entries that bind do so weakly or less than the wild type. For some of these results: Sequences can lack the tags named with a protein.

T1: C-terminally GFP-tagged MTBP (human) (UniProt Q96DY7)
T1 sequence: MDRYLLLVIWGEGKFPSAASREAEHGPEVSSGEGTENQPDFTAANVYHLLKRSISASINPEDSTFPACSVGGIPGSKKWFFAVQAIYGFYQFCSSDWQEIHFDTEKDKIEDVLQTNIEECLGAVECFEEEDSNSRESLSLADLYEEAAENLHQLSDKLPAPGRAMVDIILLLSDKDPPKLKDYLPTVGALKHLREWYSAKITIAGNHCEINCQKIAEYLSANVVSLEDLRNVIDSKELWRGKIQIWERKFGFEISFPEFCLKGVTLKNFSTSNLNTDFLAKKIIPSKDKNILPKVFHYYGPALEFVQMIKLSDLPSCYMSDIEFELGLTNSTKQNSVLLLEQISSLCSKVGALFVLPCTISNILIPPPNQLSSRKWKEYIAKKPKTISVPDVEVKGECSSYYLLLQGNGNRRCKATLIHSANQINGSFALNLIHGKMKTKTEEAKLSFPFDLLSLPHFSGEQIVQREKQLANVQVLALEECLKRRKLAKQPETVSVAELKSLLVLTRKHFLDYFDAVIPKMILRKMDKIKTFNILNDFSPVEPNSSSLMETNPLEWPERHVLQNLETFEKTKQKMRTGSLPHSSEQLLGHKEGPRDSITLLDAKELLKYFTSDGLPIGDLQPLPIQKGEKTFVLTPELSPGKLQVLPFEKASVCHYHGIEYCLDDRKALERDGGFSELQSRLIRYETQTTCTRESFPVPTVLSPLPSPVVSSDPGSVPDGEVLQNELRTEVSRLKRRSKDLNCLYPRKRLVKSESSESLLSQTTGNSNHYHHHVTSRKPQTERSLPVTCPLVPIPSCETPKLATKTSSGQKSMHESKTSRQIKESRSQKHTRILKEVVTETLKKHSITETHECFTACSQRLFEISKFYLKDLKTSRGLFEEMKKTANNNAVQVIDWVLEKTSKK


What was measured:
[1] = molecular target: T1, C-terminally GFP-tagged MTBP (human); test: co-IP; Fig S9B: 3HA-Treslin/TICRR fragments (260-671) co-transfected with C-terminally GFP-tagged MTBP into 293T; anti-GFP nanobody immunoprecipitation from cell lysates
[2] = molecular target: GFP-Flag-Treslin/TICRR-ΔM2 (human) (UniProt Q7Z2Z1); test: co-IP; Fig S13: GFP-Flag-Treslin/TICRR mutants transiently transfected into 293T together with MTBP; native lysates, anti-GFP nanobody IP in the presence of recombinant Cdk2-cyclin A; immunoblots for GFP, TopBP1 and MTBP
[3] = molecular target: GFP-Flag-Treslin/TICRR-WT (human) (UniProt Q7Z2Z1); test: as above
[4] = molecular target: GFP-Flag-Treslin/TICRR-ΔM1 (human) (UniProt Q7Z2Z1); test: as above

Row | Binder | binding [1] | binding [2] | binding [3] | binding [4]
1 | 3HA-Treslin/TICRR fragment 260–671, β-strand 1m (domain or fragment, UniProt Q7Z2Z1 260-671) LRSGIKLSSEPHLSPWISMLPTDATLNRLLYNSPEYEASFPRMEGMLFLPVEAGKEIQETWTVTLEPLAMHQRHFQKPVRIFLKGSVAQWSLPTSSTLGTDSWMLGSPEESTATQRLLFQQLVSRLTAEELSGELRLDPGEGRPPITGVISPLSASAMILTVCRTKEAEFQRHVLQTAVADSPRDTASLFSDVVDSILNQTHDSLADTASAASPVPEWAQQELGHTTPWSPAVVEKWFPFCNISGASSDLMESFGLLQAASANKEESSKTEGELIHCLAELYQRKSREESTIAHQEDSKKKRGVPRTPVRQKMNTMCRSLKMLNVARLNVKAQKLHPDGSPDVAGEKGIQKIPSGRTVDKLEDRGRTLRSSKPKDFKTEEELLSYIRENYQKTVATGEIMLYACARNMISTV | binds |  |  | 
2 | 3HA-Treslin/TICRR fragment 260–671, β-strand 2m (domain or fragment, UniProt Q7Z2Z1 260-671) LRSGIKLSSEPHLSPWISMLPTDATLNRLLYNSPEYEASFPRMEGMLFLPVEAGKEIQETWTVTLEPLAMHQRHFQKPVRIFLKGSVAQWSLPTSSTLGTDSWMLGSPEESTATQRLLFQQLVSRLTAEELHLVADVDPGEGRPPSGELRLPSSASAMILTVCRTKEAEFQRHVLQTAVADSPRDTASLFSDVVDSILNQTHDSLADTASAASPVPEWAQQELGHTTPWSPAVVEKWFPFCNISGASSDLMESFGLLQAASANKEESSKTEGELIHCLAELYQRKSREESTIAHQEDSKKKRGVPRTPVRQKMNTMCRSLKMLNVARLNVKAQKLHPDGSPDVAGEKGIQKIPSGRTVDKLEDRGRTLRSSKPKDFKTEEELLSYIRENYQKTVATGEIMLYACARNMISTV | binds |  |  | 
3 | 3HA-Treslin/TICRR fragment 260–671, β-strand 3m (domain or fragment, UniProt Q7Z2Z1 260-671) LRSGIKLSSEPHLSPWISMLPTDATLNRLLYNSPEYEASFPRMEGMLFLPVEAGKEIQETWTVTLEPLAMHQRHFQKPVRIFLKGSVAQWSLPTSSTLGTDSWMLGSPEESTATQRLLFQQLVSRLTAEELHLVADVDPGEGRPPITGVISPLSALLCIKVEAFTKEAEFQRHVLQTAVADSPRDTASLFSDVVDSILNQTHDSLADTASAASPVPEWAQQELGHTTPWSPAVVEKWFPFCNISGASSDLMESFGLLQAASANKEESSKTEGELIHCLAELYQRKSREESTIAHQEDSKKKRGVPRTPVRQKMNTMCRSLKMLNVARLNVKAQKLHPDGSPDVAGEKGIQKIPSGRTVDKLEDRGRTLRSSKPKDFKTEEELLSYIRENYQKTVATGEIMLYACARNMISTV | binds |  |  | 
4 | MTBP (co-transfected) (protein, UniProt Q96DY7 1-904) MDRYLLLVIWGEGKFPSAASREAEHGPEVSSGEGTENQPDFTAANVYHLLKRSISASINPEDSTFPACSVGGIPGSKKWFFAVQAIYGFYQFCSSDWQEIHFDTEKDKIEDVLQTNIEECLGAVECFEEEDSNSRESLSLADLYEEAAENLHQLSDKLPAPGRAMVDIILLLSDKDPPKLKDYLPTVGALKHLREWYSAKITIAGNHCEINCQKIAEYLSANVVSLEDLRNVIDSKELWRGKIQIWERKFGFEISFPEFCLKGVTLKNFSTSNLNTDFLAKKIIPSKDKNILPKVFHYYGPALEFVQMIKLSDLPSCYMSDIEFELGLTNSTKQNSVLLLEQISSLCSKVGALFVLPCTISNILIPPPNQLSSRKWKEYIAKKPKTISVPDVEVKGECSSYYLLLQGNGNRRCKATLIHSANQINGSFALNLIHGKMKTKTEEAKLSFPFDLLSLPHFSGEQIVQREKQLANVQVLALEECLKRRKLAKQPETVSVAELKSLLVLTRKHFLDYFDAVIPKMILRKMDKIKTFNILNDFSPVEPNSSSLMETNPLEWPERHVLQNLETFEKTKQKMRTGSLPHSSEQLLGHKEGPRDSITLLDAKELLKYFTSDGLPIGDLQPLPIQKGEKTFVLTPELSPGKLQVLPFEKASVCHYHGIEYCLDDRKALERDGGFSELQSRLIRYETQTTCTRESFPVPTVLSPLPSPVVSSDPGSVPDGEVLQNELRTEVSRLKRRSKDLNCLYPRKRLVKSESSESLLSQTTGNSNHYHHHVTSRKPQTERSLPVTCPLVPIPSCETPKLATKTSSGQKSMHESKTSRQIKESRSQKHTRILKEVVTETLKKHSITETHECFTACSQRLFEISKFYLKDLKTSRGLFEEMKKTANNNAVQVIDWVLEKTSKK |  | no binding | binds | binds
5 | 3HA-Treslin/TICRR fragment, amino acids 260–671 (domain or fragment, UniProt Q7Z2Z1 260-671) LRSGIKLSSEPHLSPWISMLPTDATLNRLLYNSPEYEASFPRMEGMLFLPVEAGKEIQETWTVTLEPLAMHQRHFQKPVRIFLKGSVAQWSLPTSSTLGTDSWMLGSPEESTATQRLLFQQLVSRLTAEELHLVADVDPGEGRPPITGVISPLSASAMILTVCRTKEAEFQRHVLQTAVADSPRDTASLFSDVVDSILNQTHDSLADTASAASPVPEWAQQELGHTTPWSPAVVEKWFPFCNISGASSDLMESFGLLQAASANKEESSKTEGELIHCLAELYQRKSREESTIAHQEDSKKKRGVPRTPVRQKMNTMCRSLKMLNVARLNVKAQKLHPDGSPDVAGEKGIQKIPSGRTVDKLEDRGRTLRSSKPKDFKTEEELLSYIRENYQKTVATGEIMLYACARNMISTV | binds |  |  | 
